# Measurements published in the supplement of paper PMC8728848.
# The list shows a part of the results.
# B1: GNA (Galanthus nivalis), P30617 (protein)
# chain: MAKASLLILAAIFLGVITPSCLSDNILYSGETLSTGEFLNYGSFVFIMQEDCNLVLYDVDKPIWATNTGGLSRSCFLSMQTDGNLVVYNPSNKPIWASNTGGQNGNYVCILQKDRNVVIYGTDRWATGTHTGLVGIPASPPSEKYPTAGKIKLVTAK
# Experiments:
# Assay in all cases: glycan array binding signal (z-score within array); higher = stronger binding
# Conditions in all cases: glycan notation: IUPAC condensed, linker removed
# [1] = target: Neu5Ac(a2-3)Gal(b1-4)GlcNAc(b1-6)[Gal(b1-3)]GalNAc
# Method in brief: (§1)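 Glycan array data were curated from 3228 arrays in the Consortium for Functional Glycomics database and kept only where the protein sequence was available. Glycan names were converted to IUPAC-condensed notation, and columns mapping to the same glycan were averaged. The binding signal is a within-array Z-score, averaged across arrays of the same protein sequence at different concentrations or buffers and across linkers. Negative Z-scores can be read as non-binding.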
# [2] = target: Neu5Ac(a2-3)Gal(b1-4)GlcNAc(b1-6)[Neu5Ac(a2-3)Gal(b1-3)]GalNAc
# Method in brief: as §1
# [3] = target: Neu5Ac(a2-3)Gal(b1-4)GlcNAc6S
# Method in brief: as §1
# [4] = target: Neu5Ac(a2-3)Gal(b1-4)[Fuc(a1-3)]GlcNAc
# Method in brief: as §1
# [5] = target: Neu5Ac(a2-3)Gal(b1-4)[Fuc(a1-3)]GlcNAc(b1-2)Man
# Method in brief: as §1
# [6] = target: Neu5Ac(a2-3)Gal(b1-4)[Fuc(a1-3)]GlcNAc(b1-3)Gal
# Method in brief: as §1
# [7] = target: Neu5Ac(a2-3)Gal(b1-4)[Fuc(a1-3)]GlcNAc(b1-3)Gal(b1-4)GlcNAc
# Method in brief: as §1
# [8] = target: Neu5Ac(a2-3)Gal(b1-4)[Fuc(a1-3)]GlcNAc(b1-3)Gal(b1-4)[Fuc(a1-3)]GlcNAc(b1-3)Gal(b1-4)[Fuc(a1-3)]GlcNAc
# Method in brief: as §1
# [9] = target: Neu5Ac(a2-3)Gal(b1-4)[Fuc(a1-3)]GlcNAc(b1-3)GalNAc
# Method in brief: as §1
# [10] = target: Neu5Ac(a2-3)Gal(b1-4)[Fuc(a1-3)]GlcNAc(b1-6)[Gal(b1-3)]GalNAc
# Method in brief: as §1
# [11] = target: Neu5Ac(a2-3)Gal(b1-4)[Fuc(a1-3)]GlcNAc(b1-6)[Neu5Ac(a2-3)Gal(b1-3)]GalNAc
# Method in brief: as §1
# [12] = target: Neu5Ac(a2-3)Gal(b1-4)[Fuc(a1-3)]GlcNAc6S
# Method in brief: as §1
# [13] = target: Neu5Ac(a2-3)Gal6S(b1-4)GlcNAc
# Method in brief: as §1
# [14] = target: Neu5Ac(a2-3)Gal6S(b1-4)[Fuc(a1-3)]GlcNAc
# Method in brief: as §1
# Neu5Ac(a2-3)GalNAc = target: Neu5Ac(a2-3)GalNAc
# Method in brief: as §1
# [15] = target: Neu5Ac(a2-3)GalNAc(b1-4)GlcNAc
# Method in brief: as §1
# [16] = target: Neu5Ac(a2-3)[GalNAc(b1-4)]Gal(b1-4)Glc
# Method in brief: as §1
# [17] = target: Neu5Ac(a2-3)[GalNAc(b1-4)]Gal(b1-4)GlcNAc
# Method in brief: as §1
# [18] = target: Neu5Ac(a2-3)[GalNAc(b1-4)]Gal(b1-4)GlcNAc(b1-3)GalNAc
# Method in brief: as §1
# [19] = target: Neu5Ac(a2-3)[Neu5Ac(a2-6)]GalNAc
# Method in brief: as §1
# Neu5Ac(a2-6)Gal = target: Neu5Ac(a2-6)Gal
# Method in brief: as §1
# [20] = target: Neu5Ac(a2-6)Gal(b1-3)GlcNAc(b1-3)[Gal(b1-4)GlcNAc(b1-6)]Gal(b1-4)Glc
# Method in brief: as §1
# Neu5Ac(a2-6)Gal(b1-4)Glc = target: Neu5Ac(a2-6)Gal(b1-4)Glc
# Method in brief: as §1
# [21] = target: Neu5Ac(a2-6)Gal(b1-4)GlcNAc
# Method in brief: as §1
# [22] = target: Neu5Ac(a2-6)Gal(b1-4)GlcNAc(b1-2)Man
# Method in brief: as §1
# [23] = target: Neu5Ac(a2-6)Gal(b1-4)GlcNAc(b1-2)Man(a1-3)Man(b1-4)GlcNAc(b1-4)GlcNAc
# Method in brief: as §1
# [24] = target: Neu5Ac(a2-6)Gal(b1-4)GlcNAc(b1-2)Man(a1-3)[Gal(b1-4)GlcNAc(b1-2)Man(a1-6)]Man(b1-4)GlcNAc(b1-4)GlcNAc
# Method in brief: as §1
# [25] = target: Neu5Ac(a2-6)Gal(b1-4)GlcNAc(b1-2)Man(a1-3)[GlcNAc(b1-2)Man(a1-6)]Man(b1-4)GlcNAc(b1-4)GlcNAc
# Method in brief: as §1
# [26] = target: Neu5Ac(a2-6)Gal(b1-4)GlcNAc(b1-2)Man(a1-3)[GlcNAc(b1-2)Man(b1-4)GlcNAc(b1-2)Man(a1-6)]Man(b1-4)GlcNAc(b1-4)GlcNAc
# Method in brief: as §1
# [27] = target: Neu5Ac(a2-6)Gal(b1-4)GlcNAc(b1-2)Man(a1-3)[GlcNAc(b1-4)][Neu5Ac(a2-6)Gal(b1-4)GlcNAc(b1-2)Man(a1-6)]Man(b1-4)GlcNAc(b1-4)GlcNAc
# Method in brief: as §1
# [28] = target: Neu5Ac(a2-6)Gal(b1-4)GlcNAc(b1-2)Man(a1-3)[Man(a1-6)]Man(b1-4)GlcNAc(b1-4)GlcNAc
# Method in brief: as §1
binder,measurement,setting,value
B1,glycan array binding signal (z-score),[1],-0.219
same,glycan array binding signal (z-score),[2],-0.152
same,glycan array binding signal (z-score),[3],-0.064
same,glycan array binding signal (z-score),[4],-0.171
same,glycan array binding signal (z-score),[5],-0.166
same,glycan array binding signal (z-score),[6],-0.143
same,glycan array binding signal (z-score),[7],-0.183
same,glycan array binding signal (z-score),[8],-0.235
same,glycan array binding signal (z-score),[9],-0.151
same,glycan array binding signal (z-score),[10],-0.103
same,glycan array binding signal (z-score),[11],-0.181
same,glycan array binding signal (z-score),[12],-0.124
same,glycan array binding signal (z-score),[13],-0.126
same,glycan array binding signal (z-score),[14],-0.07
same,glycan array binding signal (z-score),Neu5Ac(a2-3)GalNAc,-0.207
same,glycan array binding signal (z-score),[15],-0.161
same,glycan array binding signal (z-score),[16],-0.104
same,glycan array binding signal (z-score),[17],-0.088
same,glycan array binding signal (z-score),[18],-0.073
same,glycan array binding signal (z-score),[19],-0.164
same,glycan array binding signal (z-score),Neu5Ac(a2-6)Gal,-0.126
same,glycan array binding signal (z-score),[20],-0.168
same,glycan array binding signal (z-score),Neu5Ac(a2-6)Gal(b1-4)Glc,-0.124
same,glycan array binding signal (z-score),[21],-0.159
same,glycan array binding signal (z-score),[22],-0.164
same,glycan array binding signal (z-score),[23],-0.17
same,glycan array binding signal (z-score),[24],-0.215
same,glycan array binding signal (z-score),[25],-0.172
same,glycan array binding signal (z-score),[26],-0.372
same,glycan array binding signal (z-score),[27],-0.182
same,glycan array binding signal (z-score),[28],-0.097
